Reference: PubChem BioAssay AID1745845 (National Center for Advancing Translational Sciences (NCATS), 2022)
Several values for one entry are separate records, joined by “and”; a condition that tells them apart may be missing. Equal entries are not always repeated. The whole screen tested about 360,000 compounds, of which about 2,600 (0.72%) were called active. The shares of active, inactive and inconclusive entries below differ from those in the screen. Calls follow the shape of the dose curve; as a rule, active = well fitted inhibition curve with a large enough effect; inconclusive = small, poorly fitted or top-dose-only effect; inactive = no such curve, though single readings can be large or run the other way. Where the call is inconclusive, the potency comes from a doubtful curve fit.

Test: Primary qHTS for Inhibitors of ATXN expression; also: nearly all actives have a fitted effect of over 55% in size
Settings: HEK-293 ATXN2-luciferase reporter, luminescence, 24 h; activity change, negative = inhibition: at 57 µM (top of the series)
Outline: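 qHTS (up to 57 uM final) was run with 24 h compound exposure of reporter cells at 37 °C. Each well was multiplexed: SteadyGlo luminescence measured ATXN2-luciferase expression after a fluorogenic Gly-Phe-AFC viability readout (25 uM final).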
% is scaled to controls: 0 for no effect and ±100 for the full control effect; potency is read from the fitted curve at half-maximal effect; tags tell the direction and shape of the fitted curve.

| SMILES | Potency | activity change, negative = inhibition |
| --- | --- | --- |
| O=C(c1ccc2c(=O)n(Cc3ccc(Cl)cc3)c(=S)[nH]c2c1)N1CCOCC1 | inconclusive: 17.8 µM [inhibitor, partial curve, poor fit] |  |
| COc1cc(O)c(C(=O)/C=C/c2ccccc2)c(OC)c1 | inconclusive: 39.8 µM [inhibitor, single point] |  |
| Cc1ccc(-c2cc(-c3ccccc3)nc(NN)n2)cc1 | inconclusive: 20 µM [inhibitor, single point] |  |
| COc1ccc(OC)c(CCNC(=O)CS(=O)(=O)Cc2nc(-c3ccccc3Cl)oc2C)c1 |  | inactive: -9.66% |
| CCOC(=O)[C@]12CCCC=C1N(Cc1ccc3c(c1)OCO3)C(=O)[C@H](CC(=O)NCCc1ccccc1OC)C2 |  | inactive: -32.8% |
| O=C1N(Cc2cccnc2)C[C@@H]2C[C@@H](c3ccc(-c4ccccc4)cc3)N3CCC[C@@]123 |  | inconclusive: -40.4% [inhibitor] |
| Cc1cc(C)cc(NC(=O)CSc2ccc(-c3ccccn3)nn2)c1 | inconclusive: 20 µM [inhibitor, single point] |  |
| COc1ccc(NC(=O)N(C)C[C@@H]2OCc3ccccc3-c3c(n(C)c4ccccc34)C(=O)N([C@H](C)CO)C[C@H]2C)c(OC)c1 | inconclusive: 31.6 µM [inhibitor, single point] |  |
| CN(CC(=O)Nc1cccc(F)c1)CC(=O)Nc1cccc(S(=O)(=O)N(C)c2ccccc2)c1 | inconclusive: 28.2 µM [inhibitor, partial curve, poor fit] |  |
| Cc1cc(-c2nn(-c3ccccc3F)cc2CN2CCN(c3ccccn3)CC2)c(C)s1 |  | inactive: 5.65% |
| CCS(=O)(=O)c1ccc(-c2csc(-c3ccccc3)n2)c(Cl)c1Cl |  | inactive: 13.5% |
| CC(=O)N1CCN(c2ccc(NCc3cccc4ccccc34)cc2)CC1 |  | inactive: -34.8% |
| COc1cccc(NS(=O)(=O)c2ccc3[nH]cc(C(=O)NC4CCCCC4)c(=O)c3c2)c1 | inconclusive: 28.2 µM [inhibitor, partial curve] |  |
| Cc1ccc(NC(=S)N(CCCN2CCCC2)Cc2cccn2Cc2ccc(Cl)cc2)cc1 | inconclusive: 28.2 µM [inhibitor, partial curve, poor fit] |  |
| O=[N+]([O-])c1ccc(O)c2ncccc12 | active: 5.62 µM and active: 10 µM |  |
| COc1ccc(OC)c(-c2cc(C3CCN(c4cc(Cl)nc(N)n4)CC3)[nH]n2)c1 | inconclusive: 28.2 µM [inhibitor, single point] |  |
| CCN(CC)C(=O)C1=C(C)N(Cc2ccc(C(C)(C)C)cc2)C(=O)C(CC(=O)NCCCN(C)C)C1 (stereo not given) |  | inactive: 6.87% |
| Cc1cc(C)nc(S/C=C/C(=O)c2ccccc2)n1 | inconclusive: 35.5 µM [inhibitor, single point] |  |
| OC(c1ccc(Cl)c(F)c1)c1ncc(-c2cccc(C(F)(F)F)c2)[nH]1 (stereo not given) | inconclusive: 39.8 µM [inhibitor, single point] |  |
| O=C(/C=C/c1ccc(Cl)cc1)NC(=S)Nc1ccccc1C(=O)O | inconclusive: 28.2 µM [inhibitor, single point] |  |
| CCOC(=O)c1c(CSC(=N)N)n(-c2ccc(C)cc2)c2cc(Br)c(OC(C)=O)cc12 | inconclusive: 39.8 µM [inhibitor, single point] |  |
| CC(=O)c1ccc(S(=O)(=O)N2CCN(CCOc3ccc(Br)cc3)CC2)cc1 | inconclusive: 2.82 µM [inhibitor, full curve, poor fit] |  |

| SMILES | Potency | activity change, negative = inhibition |
| --- | --- | --- |
| CCN(C(=O)C1CCN(c2nc(-c3ccc(OC)cc3)no2)CC1)c1ccccc1 | inconclusive: 10 µM [inhibitor, partial curve, poor fit] |  |
| Cc1oc(-c2cccc(Cl)c2)nc1CS(=O)(=O)CC(=O)NCCN1CCCC1 | inconclusive: 29.9 µM [inhibitor, single point] |  |
| CCOc1ccc(/C=C/C(=O)NC2CCCCC2)cc1 |  | inactive: 22.4% |
| C=CCNc1oc(/C=C/c2ccccc2)nc1C#N |  | inactive: 57.4% |
| C=C1C(=O)C2=CC1CCC(=O)C1(C)CCC(OC(C)=O)C(C)(C)C1CC2O (stereo not given) | inconclusive: 20 µM [inhibitor, partial curve, poor fit] |  |
| CCN1CCN(Cc2ccc(NC(=O)c3ccc(C)c(NC(=O)c4cncc(-c5cccs5)c4)c3)cc2C(F)(F)F)CC1 | active: 14.1 µM |  |
| Cc1cccc(NC(=O)Cn2nc(N3CCN(c4ccccc4)CC3)ccc2=O)c1C | inconclusive: 15.8 µM [inhibitor, partial curve, poor fit] |  |
| Cc1ccccc1NC(=O)CSc1nc2ccc(NC(=O)COc3ccccc3F)cc2s1 | active: 17.8 µM |  |
| CC(=O)c1ccc(N2CCN(CC(O)COC(c3ccccc3)c3ccccc3)CC2)cc1 (stereo not given) | inconclusive: 7.94 µM [inhibitor, partial curve, poor fit] |  |
| O=C(Nc1ccc(Oc2cccc(C(F)(F)F)c2)nc1)c1cccs1 | inconclusive: 11.2 µM [inhibitor, partial curve] |  |
| Cc1cccc(-c2nc(Nc3cccc(O)c3)c3ccccc3n2)c1 |  | inactive: -26.5% |
| COc1cc(C)nc(N2CCC(C(=O)NCC3CCCO3)CC2)n1 (stereo not given) |  | inactive: 5.31% |
| Cc1cc([N+](=O)[O-])ccc1NC(=S)NC(=O)C(c1ccccc1)c1ccccc1 | inconclusive: 28.2 µM [inhibitor, partial curve, poor fit] |  |
| O=C(NCCN1CCOCC1)c1cc(-c2ccccc2)on1 |  | inactive: -0.952% |
| O=C(O)c1ccc(CNCc2cccc(Cl)c2)cc1 | inconclusive: 2.38 µM [inhibitor, partial curve, poor fit] |  |
| COc1cccc(-c2cccc(-c3nc(C(=O)Nc4ccc(-c5ccccc5)cc4)cc4c3[C@H](CCO)N(S(=O)C(C)(C)C)C4)c2)c1 (stereo not given in full) | inconclusive: 20 µM [inhibitor, single point] |  |
| Cc1cccn2c(Nc3ccc4c(c3)OCCO4)c(-c3ccc(Br)o3)nc12 | inconclusive: 39.8 µM [inhibitor, single point] |  |
| CCOc1ccc(OCCCN(C)C)cc1 | inconclusive: 31.6 µM [inhibitor, single point] |  |
| O=C(Nc1cccc(Cl)c1Cl)c1cc2nc(-c3ccc4c(c3)OCO4)cc(C(F)(F)F)n2n1 |  | inactive: 7.09% |
| Cc1cccc2cc3c(nc12)SC(=NCC1CCCO1)N(Cc1ccco1)C3 (stereo not given) |  | inactive: -19% |
| Nc1c(S(=O)(=O)c2cccs2)c2nc3ccccc3nc2n1/N=C/c1cccc(O)c1 | inconclusive: 39.8 µM [inhibitor, single point] |  |
| COc1ccc(CC(N)c2csc(NC(=O)NC(c3ccccc3)c3ccccc3)n2)cc1 (stereo not given) | inconclusive: 35.5 µM [inhibitor, single point] |  |

| SMILES | Potency | activity change, negative = inhibition |
| --- | --- | --- |
| COc1ccc(C(=O)c2c3ccc([N+](=O)[O-])cc3[n+]([O-])n2CCCC(N)=O)cc1 | inconclusive: 31.6 µM [inhibitor, partial curve, poor fit] |  |
| Cc1cc(C)nc(NS(=O)(=O)c2ccc(NC(=O)CSc3nc4ccccc4[nH]3)cc2)n1 |  | inactive: 0.887% |
| O=C(CN(c1cccc(C(F)(F)F)c1)S(=O)(=O)c1ccc(Cl)c([N+](=O)[O-])c1)NCc1ccc(F)cc1 | inconclusive: 35.5 µM [inhibitor, single point] |  |
| OCCCNc1ncnc2oc(-c3ccccc3)c(-c3ccccc3)c12 | inconclusive: 8.91 µM [inhibitor, partial curve, poor fit] |  |
| c1ccc(Cn2c(-c3ccccc3)c[n+]3c2SCCC3)cc1 | inconclusive: 17.8 µM [inhibitor, single point] |  |
| Cn1c(COc2ccc(Cl)cc2)nnc1SCc1ncc(-c2ccccc2)o1 | inconclusive: 35.5 µM [inhibitor, single point] |  |
| COc1cccc(NC(=O)c2nc(S(C)(=O)=O)ncc2Cl)c1 | inconclusive: 39.8 µM [inhibitor, single point] |  |
| COc1cccc(-c2nnc(NC(=O)c3ccc(Cl)s3)o2)c1 | inconclusive: 22.4 µM [inhibitor, single point] |  |
| COc1cccc(N2C(=O)C(CC(=O)Nc3ccc(F)cc3)N(CCC3=CCCCC3)C2=O)c1 (stereo not given) | inconclusive: 39.8 µM [inhibitor, single point] |  |
| COc1ccc(COC(=O)c2cccc(S(=O)(=O)N3CCN(C(C)=O)CC3)c2)cc1F |  | inactive: -7.4% |
| O=C1C2=C(Nc3ccccc3SC2c2ccc(Cl)c(Cl)c2)c2ccccc21 (stereo not given) | inconclusive: 31.6 µM [inhibitor, single point] |  |
| CN(C)CCCN(C(=O)c1ccco1)c1nc2ccc(Br)cc2s1 | active: 25.1 µM |  |
| COc1ccc(-c2cc3ccccc3oc2=O)cc1NC(=S)NC(=O)c1ccc2c(c1)OCCO2 | inconclusive: 7.94 µM [inhibitor, full curve] |  |
| COc1ccc(CCN(C)Cc2ccc(OC)c(OCc3ccccc3)c2)cc1OC |  | inactive: -15.1% |
| CC(NC(=O)CN(C)CC(=O)Nc1cccc(F)c1)c1ccccc1 (stereo not given) |  | inactive: -13.8% |
| CCOC(=O)c1ccc(NS(=O)(=O)c2cn(C)c(C)n2)cc1 |  | inactive: 4.27% |
| COC(=O)[C@H](Cc1ccccc1)NC(=O)C1CCN(C(=O)[C@H](C)NS(=O)(=O)c2ccc(C)cc2)CC1 | inconclusive: 25.1 µM [inhibitor, partial curve] |  |
| O=C(N/N=C/c1cc(Br)cc(Br)c1O)c1ccncc1 | inconclusive: 31.6 µM [inhibitor, single point] |  |
| OCCN(CCO)c1ccc(C(c2ccc(Cl)cc2)c2ccc(N(CCO)CCO)cc2Cl)c(Cl)c1 | inconclusive: 39.8 µM [inhibitor, single point] |  |
| CC1CCc2nc(NC(=O)c3ccco3)sc2C1 (stereo not given) | active: 11.2 µM |  |
| COc1ccc(C2c3ccc4ccccc4c3Oc3ncn(CCCO)c(=N)c32)cc1OC (stereo not given) | inconclusive: 39.8 µM [inhibitor, single point] |  |
